# According to PMC4336329 (PLoS ONE, 2015):
# Hit rate of the full screen: of about 310,000 compounds, about 2,200 (0.71%) showed an effect of 50% or more. The effect is printed as a negative number. Some of the results follow.
# Molecular target: human ether-à-go-go-related gene (hERG) potassium channel (human, UniProt Q12809)
# Assay: primary screen, population patch clamp on CHO cells stably expressing hERG
# Chain of human ether-à-go-go-related gene (hERG) potassium channel (Q12809 whole entry, looked up): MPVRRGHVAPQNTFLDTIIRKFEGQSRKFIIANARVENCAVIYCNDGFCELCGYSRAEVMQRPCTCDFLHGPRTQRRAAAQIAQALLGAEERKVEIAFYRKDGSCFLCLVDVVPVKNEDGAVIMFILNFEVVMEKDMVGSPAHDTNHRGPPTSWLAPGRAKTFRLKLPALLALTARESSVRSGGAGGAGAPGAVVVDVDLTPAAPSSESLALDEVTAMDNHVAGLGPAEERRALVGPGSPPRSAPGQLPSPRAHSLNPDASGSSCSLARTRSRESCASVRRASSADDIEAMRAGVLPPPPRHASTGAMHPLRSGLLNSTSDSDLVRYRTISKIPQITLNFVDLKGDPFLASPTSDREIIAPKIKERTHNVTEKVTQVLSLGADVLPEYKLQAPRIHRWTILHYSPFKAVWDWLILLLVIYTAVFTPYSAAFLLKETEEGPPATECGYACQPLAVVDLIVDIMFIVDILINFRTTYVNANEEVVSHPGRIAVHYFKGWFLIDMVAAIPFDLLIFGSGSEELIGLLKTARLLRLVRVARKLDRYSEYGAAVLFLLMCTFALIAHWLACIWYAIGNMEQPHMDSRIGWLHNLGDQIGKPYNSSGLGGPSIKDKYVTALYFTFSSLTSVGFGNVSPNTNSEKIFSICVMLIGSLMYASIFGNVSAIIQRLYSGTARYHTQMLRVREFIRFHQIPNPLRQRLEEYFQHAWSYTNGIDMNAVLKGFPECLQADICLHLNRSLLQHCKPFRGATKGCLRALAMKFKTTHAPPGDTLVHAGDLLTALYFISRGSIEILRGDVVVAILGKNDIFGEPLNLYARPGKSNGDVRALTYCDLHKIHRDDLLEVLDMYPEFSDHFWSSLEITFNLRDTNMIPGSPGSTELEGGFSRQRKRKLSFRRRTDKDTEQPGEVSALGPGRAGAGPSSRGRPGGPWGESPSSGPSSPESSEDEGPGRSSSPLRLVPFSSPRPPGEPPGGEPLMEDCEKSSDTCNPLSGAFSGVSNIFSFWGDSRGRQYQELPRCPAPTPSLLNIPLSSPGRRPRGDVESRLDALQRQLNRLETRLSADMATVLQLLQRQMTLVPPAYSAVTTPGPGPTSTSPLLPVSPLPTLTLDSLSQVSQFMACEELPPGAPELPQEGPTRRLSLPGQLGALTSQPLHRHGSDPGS
row,Compound,"hERG current change (%, negative = inhibition) at 1uM"
1,CCn1c(SC)nnc1-c1sc2cc(Cl)ccc2c1Cl,7.49%
2,CC(C)(C)NC(=O)CSc1nccn1Cc1ccccc1,5.85%
3,COc1ccc(NC(=O)c2ccc(OCc3c(C)noc3C)c(OC)c2)cn1,3.06%
4,CC1=C(C(=O)OC(C)(C)C)C(c2cccs2)NC(=O)N1 (centres unmarked),-0.783%
5,CN(C)c1ccc(SC#N)cc1,7.06%
6,OCCNc1nc(Nc2ccccc2Cl)nc(N2CCCC2)n1,9.97%
7,O=C1CSC(c2ccccc2[N+](=O)[O-])N1c1cccc(F)c1 (centres unmarked),6.76%
8,CCOC(=O)N1CCN(Cc2nc(Cc3cccc(F)c3)no2)CC1,12.2%
9,C[C@H]1CC[C@@]2(O[C@H](CCO)C[C@H](O)[C@H]2O)O1,19.7%
10,CCCC(=O)Nc1sc2c(c1C#N)CC(C)(C)NC2(C)C,12.1%
11,O=C(Nc1ccc2oc(-c3ccc(Cl)c(Cl)c3)nc2c1)c1ncn[nH]1,7.68%
12,CC(OC(=O)CN1C(=O)NC(C)(C)C1=O)C(=O)c1ccccc1 (centres unmarked),1.66%
13,O=C(c1ccc2snnc2c1)N1CCOCC1,14.7%
14,COc1ccc(CN2CCOCCOCCOCC2)cc1,-21.8%
15,Cc1ccc(NC(=O)c2oc(=O)c3ccccc3c2-c2ccccc2)c(C)c1,-3.28%
16,CC(C)c1ccc(-n2c(O)c(/C=N/NC(=O)c3ccccc3O)c(=O)[nH]c2=S)cc1,12.3%
17,O=C(O)c1nn(CC(=O)N2CCN(S(=O)(=O)c3ccc(Cl)cc3)CC2)c(=O)c2ccccc12,7.83%
18,CN(Cc1ccccc1)C(=O)C(=O)c1cn(CC(=O)N2CCCC2)c2ccccc12,10.1%
19,S=c1[nH]ncn1NCc1cccc(Br)c1,11.1%
20,C(=N\n1cnnc1)/c1ccc(N2CCOCC2)cc1,-4.52%
21,CCC(=O)Nc1cc(=O)[nH]c2ncnn12,-8.36%
22,Cc1cc(Oc2ccccc2)nc(OCC#N)n1,-2.96%
23,C=C(C)C(=O)Nc1cccc(C2=NOC3(C2)C[C@@H](C(N)=O)N(C(=O)c2cc([N+](=O)[O-])cc([N+](=O)[O-])c2)C3)c1 (some centres unmarked),5.23%

row,Compound,"hERG current change (%, negative = inhibition) at 1uM"
1,COc1cccc(NC(=O)CN2C(=O)COc3ccc(Cl)cc32)c1,8.19%
2,COc1cccc(NC(=O)/C=C/c2ccccc2[N+](=O)[O-])c1,4.18%
3,CN=c1oc2ccc(Cl)cc2cc1C(N)=O,13%
4,CCOC(=O)c1cc(-c2ccccc2)sc1NC(=O)CCN1C(=O)c2ccccc2C1=O,8.1%
5,COc1ccccc1NC(=O)c1cc2n(n1)C(C(F)(F)F)CC(c1ccc3c(c1)OCO3)N2 (centres unmarked),15.1%
6,CCOc1ccccc1NC(=O)COC(=O)c1cnc(C)cn1,2.07%
7,O=C(O)CC1OCC=C2CN3CCC45c6ccccc6NC4C1C2CC35 (centres unmarked),4.73%
8,Cl.N=C(N)N=Nc1c(O)[nH]c2ccc(Br)cc12,6.02%
9,O=C(O)COCC(=O)NC1CCN(Cc2ccccc2)CC1,16%
10,Cc1ccc2c(CC(=O)OCC(=O)N(CC(C)C)c3c(N)n(Cc4ccccc4)c(=O)[nH]c3=O)coc2c1,6.91%
11,NC(=S)N/N=C/c1ccc2cccc(OCc3ccccc3)c2n1,8.98%
12,COc1ccc(NC(=O)/C=C/c2cccc(F)c2)cn1,0.502%
13,O=C(Nc1ccc(Cl)c(Cl)c1)c1ccc2c(c1)OCO2,16.9%
14,O=C(OCCOc1ccccc1F)c1cccc(S(=O)(=O)N2CCOCC2)c1,24.6%
15,O=C(NC1CCCCC1)c1cc(N2C(=O)CCC2=O)ccc1Cl,13.2%
16,Cc1nn(-c2ccccc2)c(C)c1NC(=O)COC(=O)Cc1ccccc1,2.16%
17,CCOc1ccc(OCC)c(S(=O)(=O)NCc2cccnc2)c1,3.9%
18,O=C(COc1ccc(S(=O)(=O)N2CCCC2)cc1)NCc1ccccn1,7.77%
19,CCC(C)(C)C(=O)Nc1ccc(OC)cc1[N+](=O)[O-],-11.7%
20,COc1ccc(-c2[nH]c3ccccc3c2SCCN)cc1,5.18%
21,CC(C)NC(=O)NC(=O)COC(=O)c1cc[n+]([O-])cc1,8.5%
22,ONC(=Nc1ccccc1)C(=Nc1ccccc1)NO,3.23%
23,O=C(NCCc1ccncc1)C12CC3CC(CC(C3)C1)C2,-0.276%

row,Compound,"hERG current change (%, negative = inhibition) at 1uM"
1,CSc1nc2c(c(-c3ccccc3)c1C#N)CCC2,4.06%
2,O=C(O)c1ccccc1SSc1ccccc1C(=O)O,11.2%
3,O=C(N/N=C/c1ccc(OC(=O)c2ccco2)cc1)c1ccncc1,6.49%
4,CN(CC(=O)Nc1ccccc1Cl)C(=O)CSC(=S)N1CCCC1,4.36%
5,Cn1ncc(Cl)c1C(=O)N/N=C/c1ccccn1,7.14%
6,CC(C)C(NS(=O)(=O)c1cccc2nsnc12)C(=O)N1CCCCC1 (centres unmarked),8.75%
7,Cc1ccc(C(=O)OCC(=O)N2CC(C)OC(C)C2)cc1 (centres unmarked),15.5%
8,O=C1c2ccccc2C(=O)N1OCCOCCOCCON1C(=O)c2ccccc2C1=O,-2.15%
9,CCCCCCCCCCCCN1[C@@H](CC(=O)O)c2cc(C(F)(F)F)ccc2S1(=O)=O,-11.8%
10,CCc1ccccc1NS(=O)(=O)c1ccc(OC)c2ncccc12,14.4%
11,CN(C(=O)c1cc(-c2ccccc2)on1)C1CCCCC1,10.5%
12,O=C(Nc1cccc(Cl)c1)N1CCOCC1,17.8%
13,CCNC(=S)N/N=C/c1ccc(C(=O)O)cc1,5.45%
14,COc1ccc2oc3cc(C)[n+]([O-])c(-c4ccc(C)cc4)c3c2c1,-5.29%
15,Cc1ccc(C)c(NC(=O)CCN2C(=O)[C@@H]3Cc4ccccc4CN3C2=O)c1,15.3%
16,C=CCOC(=O)C1=C[C@H](C2CCCCC2)[C@@H](CCCO)[C@H](OCC)O1,9.02%
17,Cc1ccc(S(=O)(=O)CC(=O)c2cc(C)c(O)c(C)c2)cc1,8.75%
18,Cn1c(N=NC(=O)c2ccccc2)c(O)c2ccccc21,17.7%
19,COc1cccc(NC(=O)Cc2nnc(SCC(=O)NC(C)c3ccccc3)n2C)c1 (centres unmarked),13.1%
20,CC(=O)Nc1ccc(S(=O)(=O)NCCC(=O)OCC(=O)N2CCN(C(=O)c3ccco3)CC2)cc1,5.68%
21,O=C(CCc1ccccc1)c1nnc(-c2ccccc2)o1,0.581%
22,O=C(CNC(=O)c1ccc2c(c1)OCCO2)N/N=C/c1cccc(Br)c1,7.03%
23,CCCCN(CCCC)CCNC(=O)c1cn(CC)c2ccc(S(=O)(=O)N3CCCC3)cc2c1=O,-30.2%

row,Compound,"hERG current change (%, negative = inhibition) at 1uM"
1,Cl.Oc1ccc(CC2(N3CCCC3)CCCCC2)cc1,18.3%
2,CC1CCc2nn(CC(=O)NCCN3CCCCC3C)cc2C1 (centres unmarked),0.592%
3,COc1ccc(OC)c(NC(=S)N(CCc2c(C)[nH]c3ccccc23)Cc2cccs2)c1,5.84%
4,CC1=C(C(=O)Nc2ccccc2C(=O)NCCCOC(C)C)SCCO1,18.8%
5,Cc1noc(C)c1COc1ccc(C(=O)N2CCN(S(=O)(=O)c3ccc(Cl)cc3)CC2)cc1,-7.72%
6,COc1cc(Cl)c(C)cc1NC(=O)CN(C)Cc1cccc(OC)c1OC,4.09%
7,CCOC(=O)CNC(=O)c1ccc(Br)s1,3.66%
8,Cn1cnnc1SCC(=O)Nc1ccc2c(c1)CCC2,8.47%
9,CC(C)CCNC(=O)NC(=O)CSc1ncccn1,16.8%
10,COc1ccc(C/C(N)=N/n2cnnc2)cc1Cl,14.3%
11,O=C(NCCC1=CCCCC1)C1CCC(CNS(=O)(=O)c2ccccc2)CC1 (centres unmarked),5.85%
12,COc1cccc(NC(=O)NCC2CCN(Cc3ccc(F)cc3)CC2)c1,-3.34%
13,COc1ccc(S(=O)(=O)NC2CC2)cc1Cl,16.9%
14,Cc1ccc(S(=O)(=O)NCCC(=O)N2CCCCCC2)cc1,8.69%
15,FC(F)(F)c1cc(-c2ccccc2)nc(-n2cc(Cl)cn2)n1,14.8%
16,COc1cc(OC)c(OC)cc1CNCC1COc2ccccc2O1.Cl (centres unmarked),10.9%
17,CCC1(c2ccccc2)NC(=O)N(CC(=O)Nc2ccc(S(N)(=O)=O)cc2)C1=O (centres unmarked),13.2%
18,O=C(COC(=O)c1cccnc1Cl)Nc1ccc(N2CCCCC2)cc1,6.18%
19,Nc1ccc(C(=O)OCC(=O)N2CCN(C(=O)c3ccco3)CC2)cc1[N+](=O)[O-],5.51%
20,CC(C(=O)N1CCc2ccccc21)N1CCN(S(=O)(=O)c2cccc(C(F)(F)F)c2)CC1 (centres unmarked),3.07%
21,CCc1c(C(=O)Nc2nnc(C3CC3)s2)csc1C,14.2%
22,CCc1nc(Nc2cccc(F)c2)c2oc3ccccc3c2n1.Cl,13%
23,CCNc1ccc(C(=O)OC(C(=O)NC(N)=O)C(C)C)cc1[N+](=O)[O-] (centres unmarked),15.1%
